From PubChem BioAssay AID1347165 (National Center for Advancing Translational Sciences (NCATS), 2019)
In all, about 220,000 compounds went through this assay and about 5,700 (2.6%) were called active. The shares of active, inactive and inconclusive entries below differ from those in the screen. Calls follow the shape of the dose curve; as a rule, active = well fitted inhibition curve with a large enough effect; inconclusive = small, poorly fitted or top-dose-only effect; inactive = no such curve, though single readings can be large or run the other way. Where the call is inconclusive, the potency comes from a doubtful curve fit.
Also: nearly all actives have a fitted effect of over 70% in size.
For activity change, negative = inhibition in this document: 0% is about no effect.
Potency is read from the fitted curve at half-maximal effect; tags tell the direction and shape of the fitted curve.

Each compound was assayed against Lysine-specific demethylase 5B (Homo sapiens) (UniProt Q9UGL1) (assay: Primary screen for KDM5B Histone Demethylases FDH-coupled qHTS). Details: FDH-coupled NADH fluorescence (FDH is formaldehyde dehydrogenase); activity change, negative = inhibition: at 57.7 µM (top of the series) unless noted.
UniProt Q9UGL1, sequence (Q9UGL1 whole entry, looked up): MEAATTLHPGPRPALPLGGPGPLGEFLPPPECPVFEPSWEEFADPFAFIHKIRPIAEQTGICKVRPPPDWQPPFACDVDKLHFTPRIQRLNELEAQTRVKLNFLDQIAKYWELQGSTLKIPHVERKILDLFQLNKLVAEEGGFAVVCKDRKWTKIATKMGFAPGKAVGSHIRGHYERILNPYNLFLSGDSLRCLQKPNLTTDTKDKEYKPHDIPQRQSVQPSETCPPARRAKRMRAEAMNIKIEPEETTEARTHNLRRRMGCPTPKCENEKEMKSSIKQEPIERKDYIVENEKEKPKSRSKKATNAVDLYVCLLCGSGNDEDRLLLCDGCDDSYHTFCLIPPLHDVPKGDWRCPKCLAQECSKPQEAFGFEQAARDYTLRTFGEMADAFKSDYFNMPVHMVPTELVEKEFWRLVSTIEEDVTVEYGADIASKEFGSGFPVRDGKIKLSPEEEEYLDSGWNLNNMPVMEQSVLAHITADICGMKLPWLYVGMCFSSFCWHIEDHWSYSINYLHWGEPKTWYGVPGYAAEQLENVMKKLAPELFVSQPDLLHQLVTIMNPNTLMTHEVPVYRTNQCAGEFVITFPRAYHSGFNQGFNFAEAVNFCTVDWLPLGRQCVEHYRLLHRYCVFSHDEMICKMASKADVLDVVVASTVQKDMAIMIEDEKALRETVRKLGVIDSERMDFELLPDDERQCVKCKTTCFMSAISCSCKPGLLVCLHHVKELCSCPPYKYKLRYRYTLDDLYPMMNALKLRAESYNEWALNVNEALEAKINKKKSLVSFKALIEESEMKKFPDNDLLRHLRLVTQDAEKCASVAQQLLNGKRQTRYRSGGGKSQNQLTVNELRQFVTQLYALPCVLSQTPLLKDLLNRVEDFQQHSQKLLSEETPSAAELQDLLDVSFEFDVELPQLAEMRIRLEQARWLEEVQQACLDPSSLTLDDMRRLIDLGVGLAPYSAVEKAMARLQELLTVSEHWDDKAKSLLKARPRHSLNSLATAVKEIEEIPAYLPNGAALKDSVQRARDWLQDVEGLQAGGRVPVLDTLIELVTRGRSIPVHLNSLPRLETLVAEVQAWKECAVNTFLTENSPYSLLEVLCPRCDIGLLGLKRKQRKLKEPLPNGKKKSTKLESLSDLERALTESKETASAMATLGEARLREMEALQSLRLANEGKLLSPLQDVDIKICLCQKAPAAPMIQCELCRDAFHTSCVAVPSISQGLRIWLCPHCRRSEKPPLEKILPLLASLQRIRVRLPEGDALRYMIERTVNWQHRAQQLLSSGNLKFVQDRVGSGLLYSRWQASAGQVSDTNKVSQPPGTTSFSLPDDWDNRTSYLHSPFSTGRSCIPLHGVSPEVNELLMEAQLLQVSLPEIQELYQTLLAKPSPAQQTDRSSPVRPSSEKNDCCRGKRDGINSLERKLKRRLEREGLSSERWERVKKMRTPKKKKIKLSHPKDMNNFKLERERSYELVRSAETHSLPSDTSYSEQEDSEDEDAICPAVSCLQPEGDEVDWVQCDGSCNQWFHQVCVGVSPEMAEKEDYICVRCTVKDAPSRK
Method in brief: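 Coupled FDH/NAD⁺ fluorescence readout. KDM5BΔAP 200 nM final; compound titration, 10 min RT preincubation; substrate mix 12.5 µM H3K4me3, 25 µM 2-OG, 50 µM Fe(II), 100 µM ascorbate, 0.25 mM NAD⁺, 0.25 U/mL FDH; ΔRFU over 30 min.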
With `COCCCNc1nc2c(S(=O)(=O)c3c(C)cc(C)cc3C)nnn2c2ccccc12` the Potency was inconclusive: 3.55 µM [inhibitor, full curve, poor fit]. In the case of `COc1cc(C2NC(=O)c3c(sc4c3CCN(C)C4)N2)cc(Br)c1OC(=O)c1ccc(C)cc1` (stereo unspecified), the Potency was inconclusive: 31.6 µM [inhibitor, partial curve, poor fit]. `COCCNC(=O)Nc1cc(C(=O)NCc2ccc(C(C)C)cc2)ccc1N1CCCC1` was tested, and the Potency was inconclusive: 22.4 µM [inhibitor, single point]. With `CNC(=O)CCn1ncc2cc(OCc3ccccc3-c3ccc(F)cc3OC)ccc21` the Potency was inconclusive: 28.2 µM [inhibitor, single point]. With `COCCN1C(=O)c2ccccc2C(C(=O)Nc2cc(C)ccc2OC)C12CCCCC2` (stereo unspecified) the “activity change, negative = inhibition” value was inactive: 19.8%. For `CCC1CCc2sc(C(=O)N3CCN(c4ccccn4)CC3)cc2C1` (stereo unspecified), the “activity change, negative = inhibition” value was inactive: -12.9%. In the case of `COc1ccc(/C=C/c2nnc(NC(=O)c3ccco3)s2)cc1`, the Potency was inconclusive: 28.2 µM [inhibitor, partial curve, poor fit]. `CCOC(=O)C1CCN(C(c2ccc(SC)cc2)c2c(O)cc(C)n(Cc3ccco3)c2=O)CC1` (stereo unspecified) was tested, and the Potency was inconclusive: 39.8 µM [inhibitor, single point]. In the case of `CC(=O)c1ccc(N2CCN(C(=O)Cn3cnc(S(=O)(=O)N4CCOCC4)c3)CC2)cc1`, the “activity change, negative = inhibition” value was inactive: -16%. In the case of `COc1ccc(OC)c(NC(=O)c2c(N3CCCC3=O)c3cc(OC)ccc3n2C)c1`, the Potency was inconclusive: 3.55 µM [inhibitor, partial curve, poor fit]. For `CCc1ccc(CNC(=O)c2cc3c(N4CCSCC4)nc(C)cn3n2)cc1`, the Potency was active: 31.6 µM. In the case of `O=C(CCc1nc2ccc(Cl)cc2[nH]1)N1CCc2n[nH]c(=O)n2CC1`, the “activity change, negative = inhibition” value was inactive: -0.88%. In the case of `CN(C)C[C@@H]1CN(c2ccccn2)C[C@H]1NC(=O)c1cccn1C`, the Potency was active: 22.4 µM. With `Cc1ccc(Cn2c(CNS(=O)(=O)c3cccc([N+](=O)[O-])c3)nc3cccnc32)cc1` the Potency was inconclusive: 22.4 µM [inhibitor, partial curve, poor fit]. `CC(C)(C)OC(=O)Nc1ccc(C(=O)NCC(c2cccs2)N2CCCC2)cc1` (stereo unspecified) was tested, and the “activity change, negative = inhibition” value was inactive: -9.83%. With `O=C(CCC[C@H]1NC[C@@H]2CC1CN(Cc1ccccc1)C2)N1CCC(N2CCCCC2)CC1` the Potency was inconclusive: 15.8 µM [inhibitor, partial curve]. For `O=C(CCn1c2c(c3ccccc31)CCCC2)N1CCc2nc3cc[nH]n3c(=O)c2C1`, the “activity change, negative = inhibition” value was inactive: -45.6%. With `O=C(O)C1Cc2ccccc2CN1S(=O)(=O)c1ccccc1` (stereo unspecified) the Potency was inconclusive: 39.8 µM [inhibitor, single point]. `COCCNc1ncc(-c2ccccc2)c2c1OCC2` was tested, and the Potency was active: 39.8 µM. `CCN(CC)C(CN)c1ccco1` (stereo unspecified) was tested, and the Potency was inconclusive: 31.6 µM [inhibitor, single point]. `CCOC(=O)c1cc2cc(C(=O)O)ccc2[nH]1` was tested, and the Potency was inconclusive: 25.1 µM [inhibitor, partial curve, poor fit]. With `Nc1nc2c(s1)CCCCCCCCCC2` the Potency was inconclusive: 28.2 µM [inhibitor, single point]. With `COc1ccc(C2(C(=O)NC3CCCc4c3[nH]c3c(Cl)cccc43)CCOCC2)cc1` (stereo unspecified) the Potency was inconclusive: 7.94 µM [inhibitor, partial curve, poor fit]. For `COc1ccc(-c2c(C)c3ccc(O)c(CN4CCOCC4)c3oc2=O)cc1`, the Potency was inconclusive: 15.8 µM [inhibitor, partial curve, poor fit]. With `N#CCc1ccc(NC(=O)CNc2cccc(F)c2)cc1` the “activity change, negative = inhibition” value was inactive: -2.69%. With `CCn1c2ccccc2c2cc(NC(=O)COc3ccc(C)cc3C)ccc21` the Potency was inconclusive: 35.5 µM [inhibitor, partial curve, poor fit]. `O=C(NCCn1ccn2nc(-c3ccc(F)cc3)cc2c1=O)c1cccs1` was tested, and the Potency was inconclusive: 25.1 µM [inhibitor, single point]. In the case of `COCCN1CCCCCC(O)c2cc(C(=O)NCc3nc4ccccc4n3C)ccc21` (stereo unspecified), the Potency was inconclusive: 22.4 µM [inhibitor, partial curve, poor fit]. With `Cc1cccc(-c2nc3c4ccccc4nc(N4CCN(c5ccccc5F)CC4)n3n2)c1` the activity change, negative = inhibition was inconclusive: -31.1% [inhibitor]. With `CC(=O)Nc1nc(-c2ccc3c(c2)CC(C)N3C(=O)C2CC2)c(C)s1` (stereo unspecified) the Potency was inconclusive: 12.6 µM [inhibitor, partial curve, poor fit]. `Cc1nc(C)c(C(=O)N2CC[C@H]3C(=O)NCCCCCCN(Cc4ccncc4)[C@@H]3C2)s1` was tested, and the Potency was inconclusive: 25.1 µM [inhibitor, partial curve, poor fit]. For `Cc1ccnc(NC(=O)c2nccnc2N)c1`, the “activity change, negative = inhibition” value was inactive: -20.9%. With `Cn1c(=O)c2c(-c3ccc(Cl)cc3)n(Cc3ccc(Cl)cc3)cc2n(C)c1=O` the Potency was inconclusive: 2.51 µM [inhibitor, partial curve, poor fit]. With `Cc1ccc2c(COC(=O)c3cccs3)cc(=O)oc2c1` the “activity change, negative = inhibition” value was inactive: 19.4%. `COc1ccc(C)cc1NC(=O)c1ccc2c(=O)n3c(nc2c1)CCCCC3` was tested, and the Potency was inconclusive: 14.1 µM [inhibitor, partial curve, poor fit]. For `CCCNC(=O)Cn1ccn2nc(-c3ccc(F)cc3)c(CO)c2c1=O`, the Potency was inconclusive: 39.8 µM [inhibitor, single point]. For `CC(CNC(=O)c1noc(-c2ccc3c(c2)OCO3)n1)c1ccccc1` (stereo unspecified), the Potency was inconclusive: 31.6 µM [inhibitor, single point]. In the case of `CCN(CC)S(=O)(=O)c1ccc(C)c(NC(=S)Nc2ccccc2C(C)(C)C)c1`, the “activity change, negative = inhibition” value was inactive: 18.9%. In the case of `COCC1CN(C2CCC2)CC12CCN(C(=O)CC(C)C)CC2` (stereo unspecified), the Potency was inconclusive: 14.1 µM [inhibitor, partial curve, poor fit]. In the case of `Cc1cc(C)cc(-c2[nH]nc3ncc(-c4ccsc4)nc23)c1`, the Potency was active: 28.2 µM. In the case of `CN1CCc2c(sc3c2C(=O)NC(c2ccc(OC(=O)c4ccccc4)cc2)N3)C1` (stereo unspecified), the Potency was inconclusive: 17.8 µM [inhibitor, partial curve, poor fit]. For `COc1ccc(OC)c(NCc2cccn2-c2nnc(N3CCCCC3)s2)c1`, the Potency was inconclusive: 14.1 µM [inhibitor, partial curve, poor fit]. For `O=C(N[C@H]1CCN2C(=O)c3cc(-c4ccc(Cl)cc4)ccc3NC(=O)[C@@H]2C1)c1ccncc1`, the “activity change, negative = inhibition” value was inactive: -12.9%. For `Cc1ccc(C)c(S(=O)(=O)c2cn(C)c3cc(N4CCCCC4C)c(F)cc3c2=O)c1` (stereo unspecified), the Potency was inconclusive: 39.8 µM [inhibitor, partial curve, poor fit]. In the case of `CC(C)c1nc(-c2ccccc2NS(=O)(=O)c2ccccc2Br)n[nH]1`, the Potency was inconclusive: 14.1 µM [inhibitor, partial curve, poor fit]. In the case of `Cc1cccc(N2CCN(S(=O)(=O)c3ccc(-c4coc(C)n4)cc3)CC2C)c1` (stereo unspecified), the Potency was inconclusive: 15.8 µM [inhibitor, partial curve, poor fit]. With `CCC(Sc1nc2ncccc2[nH]1)C(=O)Nc1cccc(OC)c1` (stereo unspecified) the “activity change, negative = inhibition” value was inactive: 1.2%. For `COc1ccc(C)cc1NC(=O)Cn1c(-c2ccccc2)nc(C)c(CCO)c1=O`, the Potency was inconclusive: 15.8 µM [inhibitor, partial curve, poor fit]. `COc1cc(/C=C/C(=O)Oc2ccc3ccc(=O)oc3c2)ccc1OS(=O)(=O)c1ccc(C)cc1` was tested, and the Potency was inconclusive: 31.6 µM [inhibitor, partial curve, poor fit]. With `CC(=O)Nc1ccc(S(=O)(=O)N2CCCC(N(C)CCc3ccccn3)C2)cc1` (stereo unspecified) the Potency was inconclusive: 28.2 µM [inhibitor, single point]. `CCc1ccc2oc(C(=O)Nc3ccc(S(=O)(=O)Nc4onc(C)c4C)cc3)cc(=O)c2c1` was tested, and the “activity change, negative = inhibition” value was inactive: 13%. In the case of `O=C(NCCNc1ncccn1)NCc1ccccc1`, the “activity change, negative = inhibition” value was inactive: 18.2%. With `CC(C)Cc1cc(CC2(NCc3ccc(N(C)C)cc3)COC2)no1` the “activity change, negative = inhibition” value was inactive: -6.5% [at 86.2 µM]. With `CCN(C(=O)CCS(=O)(=O)c1cc2[nH]c(=O)c(=O)[nH]c2cc1C)c1ccccc1` the Potency was inconclusive: 17.8 µM [inhibitor, partial curve, poor fit]. With `COC1CCN(C(=O)c2cnc3c(c2)N(Cc2ccccc2)CCC3)CC1` the Potency was active: 39.8 µM. In the case of `O=C(O)CCc1cc2n(n1)CCN(C(=O)Cc1ccncc1)C2`, the Potency was inconclusive: 22.4 µM [inhibitor, single point]. With `Cc1cc2oc(=O)cc(CN3CCN(C/C=C/c4ccccc4)CC3)c2cc1O` the Potency was inconclusive: 28.2 µM [inhibitor, partial curve, poor fit]. `Cc1cc(C[C@@H]2COC[C@@H]2NC(=O)c2sc3nc[nH]c(=O)c3c2C)on1` was tested, and the Potency was inconclusive: 22.4 µM [inhibitor, partial curve, poor fit]. For `CCCc1ccc(S(=O)(=O)N2CCN(CC(=O)NC(C)c3cccs3)CC2)cc1` (stereo unspecified), the “activity change, negative = inhibition” value was inactive: -1.3%. In the case of `CCN(CC)S(=O)(=O)c1ccc(N(C)C)c(NS(=O)(=O)c2cccs2)c1`, the “activity change, negative = inhibition” value was inactive: 16.1%. With `COCCOc1ccc(-c2nc(C)ccc2OC)cc1` the Potency was active: 25.1 µM. For `O=C(c1ccc(N2CC3CC(C2)[C@H]2CCCC(=O)N2C3)nc1)N1CCCC1` (stereo partly specified), the Potency was inconclusive: 25.1 µM [inhibitor, single point]. In the case of `C#CCNC(=O)c1nc2sccn2c1Br`, the “activity change, negative = inhibition” value was inactive: 4.33% [at 86.2 µM]. With `Cc1ccc(C(=O)N2CCc3cc(CNC(=O)CCc4ccccc4)ccc32)cc1` the Potency was inconclusive: 15.8 µM [inhibitor, partial curve, poor fit]. With `CCc1noc(-c2cccn3c(CNC(=O)CCc4cccc(OC)c4)nnc23)n1` the Potency was inconclusive: 28.2 µM [inhibitor, single point]. In the case of `CC1(C)Cc2cccc(OCC(=O)OCc3cc(=O)oc4ccc5ccccc5c34)c2O1`, the Potency was inconclusive: 20 µM [inhibitor, partial curve, poor fit].
